The whole screen tested about 52,000 compounds, of which about 1,700 (3.3%) were called active. No stated cut-off is given here; in the data, active means survival mostly below about 52% (no sharp cut-off); inactive means mostly above about 56%. The list shows a part of the results.

The subject of the test is Wild type. Kind of test: growth inhibition of S. aureus wild type versus tarO mutant, primary screen, teichoic acid synthesis inhibitors, RN4220, OD600 (AID 463173). The note with it: S. aureus RN4220 wild type/DeltatarO growth, OD600, 18 h, hits give low values, screened at 18.75 µg/mL (by protocol).
As to `COc1ccc(CN2C(=O)N(c3ccc(F)cc3)C(=O)C2CC(=O)Nc2ccccc2)cc1` (stereo unspecified), the survival is inactive: 79%.

For `CCn1c(=O)cc(OCC(=O)NCc2ccc(F)cc2Cl)c2ccccc21`, the survival is inactive: 99%. In the case of `CC12COC3(C(=O)Nc4ccccc4)CC1CCC32C` (stereo unspecified) it was inactive: 98%; in that of `CCOc1ccc(N2CC(c3nc4ccccc4n3CCC3CCCCC3)CC2=O)cc1` (stereo unspecified), inactive: 29%. As for `CCCNC(=O)C1CCN(c2cc(C)nc3c(-c4ccc(OC)c(OC)c4)c(C)nn23)CC1`, the survival is inactive: 80%. As to `O=C1CN(C(=O)c2ccccc2)C(c2ccc(F)cc2)c2cc(Br)ccc2N1` (stereo unspecified), the survival is inactive: 72%. Under `CCc1cccc(C)c1NC(=O)Nc1csc2c1CCCC2` stands inactive: 82%; under `COc1ccc2sc(N(Cc3cccnc3)C(=O)c3ccco3)nc2c1`, active: -4%.

Turning to `Cc1ccc(C)c(NC(=O)CSc2nncn3c2cc2sccc23)c1`, the survival was inactive: 80%. Under `Cc1oc(-c2ccc(Cl)cc2)nc1CSc1nnc(C)n2c1cc1sccc12` stands inactive: 96%. With `Cc1ccc(CCNc2nc3ccccc3c3nc(-c4ccccc4)nn23)cc1`, the survival was inactive: 73%. Under `O=C(NCCc1c[nH]c2ccccc12)Nc1ccccc1C(F)(F)F` stands inactive: 100%. In the case of `CCN1CCCC1CN(Cc1cc2cc(OC)ccc2[nH]c1=O)C(=O)Nc1ccccc1` (stereo unspecified), the survival was inactive: 99%. As to `COc1ccc(-c2noc(-c3ccc(NC4CCCCC4)c([N+](=O)[O-])c3)n2)cc1OC`, the survival is inactive: 84%. In the case of `Cc1cccc(CS(=O)(=O)CC2Nc3ccc(C(=O)NCc4ccccc4Cl)cc3NC2=O)c1` (stereo unspecified) it was inactive: 73%; in that of `COC(=O)c1cc(NC(=O)Cn2ncc3c2-c2ccccc2OC3)cc(C(=O)OC)c1`, inactive: 79%. In the case of `CCCn1c2ccccc2c2cnn(CC(=O)N(CCCOC(C)C)Cc3ccco3)c(=O)c21` it was inactive: 76%; in that of `COc1cc(Nc2ncnc3onc(-c4ccc(Cl)cc4)c23)cc(OC)c1`, inactive: 110%. Take `COc1cc(C(=O)Nc2ccc(OCc3cc(=O)n4ccc(C)cc4n3)cc2)cc(OC)c1OC`: the survival is active: 0%.

In the case of `Cc1ccc(-n2c(=O)c3c(C)c(C)sc3n(CC(=O)c3ccc(Cl)cc3)c2=O)cc1C`, the survival was inactive: 74%.

As to `Cc1ccc2c(c1)N(CC(=O)N1CCCc3ccccc31)C(=O)CO2`, the survival was inactive: 101%.

`CCOC1=CC2=C(CC(C)(C)CC2=O)OC1N(C)C` (stereo unspecified): the survival was inactive: 112%. Under `N#Cc1ccccc1CSc1nnc(-c2ccccc2)o1` stands inactive: 61%. With `Cc1cc(NC(=O)CCC(=O)N(Cc2ccccc2)C2(C(=O)NC3CCCCC3)CCCC2)no1`, the survival was inactive: 106%.

As to `O=C(Cn1c(=O)n(Cc2ccc(F)cc2)c(=O)c2sc3ccccc3c21)NCc1ccccc1Cl`, the survival is inactive: 92%. In the case of `COc1ccc(N2CCN(C(CNS(=O)(=O)c3c(C)cc(C)cc3C)c3ccco3)CC2)cc1` (stereo unspecified), the survival is inactive: 87%. With `Cc1ccn2c(Nc3ccc4c(c3)OCO4)c(-c3ccco3)nc2c1`, the survival is inactive: 94%. `N#Cc1c(C(F)(F)F)cc(-c2cccs2)nc1SCC(=O)Nc1ccc(Cl)cc1`: the survival was inactive: 78%. As to `CNC(=O)CSc1ncnc2sc3c(c12)CCCC3`, the survival is inactive: 104%. For the compound `Cc1cccc(N2CCN(S(=O)(=O)c3c(C)[nH]c(=O)[nH]c3=O)CC2)c1C`, the survival was inactive: 72%.

For `N#Cc1cc2nc3c(nc2cc1C#N)-c1cccc2cccc-3c12`, the survival is inactive: 103%. Take `CCOC(=O)c1ccc(NC(=O)CN(c2ccc(C)cc2)S(=O)(=O)c2ccc(OC)cc2)cc1`: the survival was inactive: 139%. In the case of `CCC(=O)Nc1nnc(S(=O)(=O)N(C)Cc2ccc(Cl)cc2)s1`, the survival is inactive: 75%. In the case of `O=S1(=O)c2ccccc2N(Cc2ccc(Cl)cc2F)c2ccccc21` it was inactive: 91%. For `CN(C)S(=O)(=O)c1ccc2c(c1)c(=O)c(C(=O)N1CCN(c3cccc(Cl)c3)CC1)cn2C`, the survival is inactive: 93%.

On to `COc1ccc(OC)c(NC(=O)CSC2=Nc3ccccc3C3=NC(CCC(=O)NCc4ccco4)C(=O)N23)c1` (stereo unspecified), for which the survival is inactive: 70%. Consider `CCOc1ccccc1NC(=O)CSC1=Nc2ccccc2C2=NC(CC(=O)NC3CCCCC3)C(=O)N12` (stereo unspecified), for which the survival is inactive: 81%. For the compound `COC(=O)CN(Cc1ccccc1)S(=O)(=O)c1ccc2c(c1)OCCO2`, the survival is inactive: 101%.

With `CCOc1ccc(CN2C(=O)c3ccccc3Sc3ccc(C(=O)N4CCN(C)CC4)cc32)cc1`, the survival was inactive: 76%. In the case of `CCOc1ccc(-c2nc3c(c(SCC(=O)N4CCCCC4)n2)Cc2cc(C)ccc2O3)cc1` it was inactive: 78%; in that of `COc1ccc(N2CCN(CCCNC(=O)Nc3ccccc3Cl)CC2)cc1`, inactive: 72%; in that of `COc1ccc(CCNC(=O)CN(c2ccc(C)cc2)S(=O)(=O)c2ccc(OC)cc2)cc1`, inactive: 71%. Regarding `Cc1cc(NC(=O)c2cccnc2)cc(-c2nc3cc(Cl)ccc3o2)c1O`, the survival is inactive: 157%. For `CCC(CC)C(=O)Nc1c(C(=O)N2CCN(c3ccccc3F)CC2)oc2ccccc12`, the survival is inactive: 113%. In the case of `CCC(Sc1nc2cc(OC)c(OC)cc2c(=O)n1Cc1ccc(Cl)cc1)C(=O)NCCOC` (stereo unspecified) it was inactive: 81%. In the case of `Brc1ccc(-c2ccc(CNCCSc3nnnn3-c3ccccc3)o2)cc1` it was inactive: 53%; in that of `CCn1nnnc1SCC(N)=O`, inactive: 101%; in that of `O=C(NC1CC(=O)N(c2ccccc2)C1)c1ccc(S(=O)(=O)N2CCOCC2)cc1` (stereo unspecified), active: 14%. Under `Cc1cc(C)cc(Oc2c(C(F)(F)F)oc3c(CN4CCCC(C)C4)c(O)ccc3c2=O)c1` (stereo unspecified) stands inactive: 71%; under `COc1ccccc1N1CCN(c2ccc3cc(S(=O)(=O)N4CCCCC4)ccc3n2)CC1`, inactive: 60%. In the case of `CCOC(=O)CC(NC(=O)c1cc2cc(Cl)ccc2oc1=O)c1ccc(C)cc1` (stereo unspecified), the survival was inactive: 121%. As to `c1ccc(-c2cn(-c3ccccc3)c3ncnc(N4CCN(c5ccccc5)CC4)c23)cc1`, the survival was inactive: 73%. Turning to `CC(N=C1NC(C)(C)Cc2ccccc21)C(=O)O` (stereo unspecified), the survival is inactive: 94%. Consider `CC(C)OC(=O)c1cc2c(ccn2C)n1CC(=O)N(Cc1ccccc1)c1ccccc1`, for which the survival was inactive: 140%. Under `COc1ccc(OC)c(NC(=O)CSc2n[nH]c(-c3ccccc3Cl)n2)c1` stands inactive: 80%; under `CC1CCN(C(=O)CSc2c3c(nc4cc(Cl)ccc24)CCCC3)CC1`, active: 10%.
